Experimental data as given in the supplement of paper PMC3334620.
The full ranking holds about 33,000 sequences; the median of “E-score (-0.5 to 0.5)” is about -0.035, and the highest 2% start at about 0.34. Some of the results follow.

target: T1, Mot3 (UniProt P54785); experiment: PBM E-score (8-mer binding enrichment) (E-score (-0.5 to 0.5)); higher = stronger / more preferred TF binding; most listed sequences are background and not binding sites; conditions: protein concentration: 200 nM; construct: GST-full length
T1 sequence: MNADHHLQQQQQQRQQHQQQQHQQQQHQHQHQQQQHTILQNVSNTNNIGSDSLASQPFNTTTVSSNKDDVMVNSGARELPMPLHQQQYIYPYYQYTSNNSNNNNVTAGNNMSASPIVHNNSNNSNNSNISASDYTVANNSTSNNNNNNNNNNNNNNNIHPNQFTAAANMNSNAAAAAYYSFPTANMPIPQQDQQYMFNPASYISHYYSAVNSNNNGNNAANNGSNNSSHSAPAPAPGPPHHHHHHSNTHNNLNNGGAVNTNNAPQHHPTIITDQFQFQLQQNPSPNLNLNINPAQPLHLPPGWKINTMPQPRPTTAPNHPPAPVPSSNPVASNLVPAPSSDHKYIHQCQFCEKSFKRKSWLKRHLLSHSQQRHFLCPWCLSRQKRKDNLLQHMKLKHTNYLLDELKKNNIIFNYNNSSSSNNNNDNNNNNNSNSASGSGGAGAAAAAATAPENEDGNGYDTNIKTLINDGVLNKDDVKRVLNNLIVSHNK
In short: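 Yeast transcription factors, full-length or as DNA-binding domains, were expressed with a GST tag using PURExpress in vitro transcription/translation. At about 100-200 nM they were applied to universal all-10-mer Agilent arrays, double-stranded by primer extension on fresh or once-stripped slides. Fluorescent anti-GST detected bound protein, and masliner normalised the scans. E-scores for ungapped eight-base words, pooled with reverse complements, came from the Universal PBM Analysis Suite.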

Sequence	PBM E-score
ACTGCGGG	-0.178
ATCAGACG	-0.154
CCCAATAA	-0.0424
GCGTTGAC	0.0224
ACGAGGGG	-0.153
ATCCTCGG	-0.157
AGTCGTAC	-0.14
TGGAGCAA	-0.138
AGAATAGC	0.013
AGGGCCCT	-0.368
ATCTGCTC	-0.121
AAACACAT	0.262
TACTGCTA	-0.254
AAATGACT	0.0159
GCAGGTTA	-0.0922
CACCCGTC	-0.202
CAAGTGGG	-0.116
CGTGTGCA	0.131
AAACGCGC	0.0362
AACAACAA	0.236
AAGTGTAA	0.0907
ACTCACTG	-0.00926
CAACGGCC	-0.222
CACGAGGG	-0.145
AGGACTAA	-0.186

Sequence	PBM E-score
AGATCCAC	-0.166
AATGTGAC	0.0328
GAGCGGAA	-0.238
AAAGTCAT	-0.0144
AGCCATTG	-0.153
AGCAAGGA	-0.0799
ACAGGTAG	-0.0129
AGTGCCTC	0.405
AACAGCCC	0.0511
ATCGTACG	-0.161
AAACGCAC	0.0986
GAGAACTC	-0.224
CGCGATAG	-0.0111
AAGATCAA	-0.0207
GACACTAA	-0.106
GATCTCAC	-0.27
ATCTATGC	0.133
TCTCGTCA	0.0328
CCGACTAA	-0.0823
CTGCATGC	0.221
AGGGTCTC	-0.11
CTCCGCGC	-0.38
GTTGCAAA	0.111
AATTAATC	0.00158
AATAGCCA	-0.0713

Sequence	PBM E-score
GTTGGTAA	0.267
ACGTCCAA	-0.00856
AAGGGATG	0.0103
TCCACCGA	-0.198
CGCTGCTA	-0.289
GAGGCAAC	0.435
ATGAGCGG	-0.126
ACGATTCG	-0.0523
GGCTTAAC	0.109
CGTGGAGA	-0.321
CCCCTCGA	-0.349
CAATGGGC	-0.0162
CCCAGGTA	0.0242
AGAGAGTA	0.0443
TCTGGAAA	-0.0747
GCTTATAC	-0.0279
CATTCCCA	-0.133
ATGCCGCA	-0.0433
ACCTGGAA	0.239
GAGATTGA	-0.0729
ATATCTGA	0.0625
ACCATAAG	-0.0852
AGACGACA	0.00758
GGGCGTAC	-0.0872
GAATATTA	0.116

Sequence	PBM E-score
TTACCTAA	0.285
GTTGAAGA	0.00717
CCAATGCG	-0.169
ACCATTTA	0.0969
CTGCGGTA	-0.118
TTCACAAA	0.019
CAGGGATA	-0.109
CAGACGTA	0.101
GACCAAGA	-0.0847
ACGCCCCC	-0.0398
CGCACGTA	0.154
GCTCATCC	-0.173
CCCAGCTA	-0.154
AAACCGCC	-0.0324
GAACTCGC	-0.0603
TCTCAACA	0.219
AGAGTAAT	0.199
TCATTGCA	-0.0218
AATTAGCG	-0.0336
AGAACGTA	0.225
ACTTCCAG	-0.235
AGTAGCCG	-0.173
CCCGCGCC	-0.169
ACCGCTGG	-0.214
CAATGCGA	-0.0378

Sequence	PBM E-score
CGCCCAAC	-0.256
AGGGACAG	-0.31
CCACCCCG	-0.259
CCTCAAAC	-0.114
AGGTCCGA	-0.19
CTAGCTCC	0.0198
GAAGAGGA	-0.265
ACTCTTCT	-0.114
CCCTCCCC	-0.254
AACAATGA	0.142
AATGTCTC	-0.0809
ATTCTAAG	0.0116
ACTGACAG	0.0192
CAGGCGTC	0.212
ATGAACAG	0.0357
ATGCCGTG	0.0853
AAGCTAGC	-0.171
CCATAATC	-0.18
AGGCTGAC	-0.329
AGGTTTCC	0.13
GTTATTTA	0.287
AAAGCTGA	0.171
AGCTTAGC	-0.00961
CAATCGAC	0.0676
ACGAGAGT	-0.0612

Sequence	PBM E-score
GTGAAAAA	0.155
CCCTTAGG	-0.123
AGCGTTAG	-0.108
ATGAATAG	-0.0885
AGAGGAAC	0.0727
CTCCTCCA	-0.0499
AGAGTGCG	-0.0765
AGATCTAA	-0.00734
GCCCGTAA	0.119
GGAATAGA	-0.0446
CAGAGAAG	-0.103
CGACCGAA	-0.101
AAGGGTAT	-0.018
GAAGTTGA	-0.0119
AGAGTGGA	-0.0533
GCGACGAC	-0.289
GAACGCGC	0.147
ACCACAAT	-0.103
GCCGTTCA	-0.252
GAGACCTA	-0.143
CCATAGAG	-0.222
CCACTAGC	-0.224
CCACAAGG	0.094
GCGGATCC	-0.312
AATTCATG	0.241

Sequence	PBM E-score
AGGTGAAA	0.071
ACTCACAA	-0.0657
CAATGCCC	-0.0882
CACCGATC	-0.203
CTACCTTC	0.0953
ACGAGTTC	0.145
CAAGACAG	0.069
CAGCAATG	-0.122
AGACGGTG	-0.156
GGCCAACA	-0.054
CCCAGCGA	-0.0667
ACACAGAT	0.206
ATGGGGAC	-0.196
ACCTCTCA	-0.0845
CTACTAAC	0.182
ATGCCGAC	-0.0646
GCCGCCGC	-0.223
ACTACCCG	-0.117
CTCATCGA	-0.234
AAAGCAGC	-0.0796
CAAAGACG	-0.227
AACGCCAC	-0.058
CATGATTA	0.119
ATACCGGG	-0.126
CTACTGAC	-0.185

Sequence	PBM E-score
GGTGTCAC	0.0186
GCCAGACA	-0.159
AGTGCTGG	-0.23
CGGGAAGA	-0.0327
ATGTTATC	0.239
ACAAACTG	-0.104
AGGCGAGG	-0.279
AGTTATCA	-0.0877
CGCCTCCG	-0.126
GAGCTATA	-0.085
ATTCTCTG	-0.122
TGTATCAA	0.117
ACCCGAGC	-0.158
AGAACTAT	-0.0425
TAAGATCA	-0.0767
GCAAGCCA	0.0317
GAATATGC	-0.152
GAGCGTTA	-0.032
ATTGGCAC	-0.068
CTACGGAC	-0.186
GATACGGA	0.075
ATTACGGG	-0.00149
AGTTGTAT	0.196
CCTGTTGA	0.203
AGAGTACA	0.107

Sequence	PBM E-score
ACCCCGCA	-0.035
AGACACCA	0.0341
AGCAATAA	-0.174
GACTTGCA	0.0227
ATGCATGC	0.0276
TCGACCCA	-0.0787
AACGGAAC	-0.0752
AAAAACAG	0.0889
AGGCAAAT	0.479
CTCGCTAA	0.00347
ATTCAAAT	-0.0966
AGATCGCT	-0.174
CCAAGTCG	-0.155
AATTATGA	0.0313
GCAGATAA	-0.0165
TCCACAGA	-0.119
GAACTCCA	-0.0184
CGGAGACG	-0.065
CGCCACTA	-0.196
CGAACTGA	-0.155
ATCGTGCG	0.0644
CGCCTAAG	-0.129
GTATAAGA	0.0722
GACCCTCA	-0.292
AATGCTGA	-0.0191

Sequence	PBM E-score
GCCGCTGA	-0.238
TGCCCGCA	0.178
ATATACGC	0.217
CGAAGTCC	-0.212
AGCTTACG	0.00492
GAGACAGC	-0.0888
CCCACCTC	-0.245
CCCCGCAA	0.0191
CCACCTTC	-0.175
CAGTGAGG	-0.193
GGTTCGAA	0.0136
CCTCTCAA	-0.097
TCTGTCCA	-0.229
AGTCCCAT	-0.115
AAATCTCG	0.189
TCAGGGGA	-0.23
CAGGAGTA	0.083
AGAGTTTC	-0.198
GAACCCTA	0.0624
CGGATTTC	-0.235
GTCCGCAC	-0.095
AATAGAAA	-0.0461
CACAAAGC	0.168
CAATTGCA	-0.0452
GATGAGCA	0.00753

Sequence	PBM E-score
ACGGACGT	-0.106
CACTTGCG	-0.115
ACAAGCAG	0.164
AGGCGTAG	-0.068
CGCTCGGC	-0.277
CCCGACCA	-0.228
CAGTGGAG	-0.218
CGGCTTCA	-0.131
ATGTGCGC	0.0448
AAGTTAAT	0.135
AGCTTTGC	-0.0939
AAATTGTC	0.117
AAGTCCCG	-0.132
ACGAGAAA	0.159
ACTGTTCC	0.0173
GAGCCTCC	-0.191
TAGATGCA	-0.238
ACATATCC	0.111
TGCGGAAA	-0.154
CACTAGAG	-0.0736
AGTCGCGG	-0.251
TCTCGAAA	-0.235
GGTGGAAC	-0.0846
CGGGCTAG	-0.196
AACAGCGG	-0.203

Sequence	PBM E-score
ACGTTACA	0.258
ATTGGTAC	-0.114
TACTCAAA	0.0585
CCGTGTTC	0.27
CCAGCCTA	-0.287
ACCGATCA	-0.0834
ACTTTGCA	0.127
AACGAATC	0.0331
TACATGCA	0.361
GATTGAAC	0.142
ACGATATC	-0.0186
CCCTTCCA	-0.236
AATTGTTA	0.199
CAATAAAC	-0.0282
AACCCCGC	-0.102
AATGCTCG	0.0502
CAAAAACA	0.0805
ACCCAACT	-0.0551
GAGTAAGC	-0.183
ATACTCAC	-0.0881
ATGAGGGG	0.00764
CGTACATC	0.0668
CAGCTTAG	-0.00307
ATTTGCAC	0.0484
ACCCGCAT	-0.0753

Sequence	PBM E-score
ATTTTGTG	0.0593
GGCGTCAA	0.123
CCACAGCG	-0.182
GCCCGCCA	-0.148
ACACATCG	0.235
CATAAACG	0.0373
CTGTCGCA	-0.144
ATAACGGC	-0.0831
ACCAGAAT	0.0833
ATTGCTTA	0.0157
CCGGATTA	-0.0226
AGCGGACC	-0.299
GGTGCTAC	0.0262
GCACATGC	0.155
GATTAGAC	-0.113
AGATACAA	0.107
GGGTCAGA	-0.332
CTCTACAA	0.169
AACCGCAC	0.00099
CACCGAGA	-0.07
CCAACTGC	-0.311
ACAGCGGA	-0.186
AAGCGGGA	-0.193
ACATGAAG	0.344
CCTTGATC	0.117

Sequence	PBM E-score
CGCCCCAG	-0.206
GAGCATGC	-0.0338
AGCGGCGG	-0.0738
AGCATATA	-0.154
TTATATAA	0.157
CACAATGG	0.0606
CATCATTA	0.216
GAGGTAAC	-0.0204
TATCTACA	0.281
CCGCCATC	-0.28
ACAAGAAC	0.225
CAGCACAA	0.132
GTTGATTA	0.224
CTAATCAG	-0.131
ACGGGGCT	-0.233
CCGCATTC	-0.198
ACCACTCA	-0.167
CCTCGCCC	-0.164
ATTACTCG	0.279
